# Assay results reported in the supplement of paper PMC11417369.
# The other results are listed elsewhere or left out.
# Tested on: PF3D7_0420300 AP2 domain 1 (GST-tagged)
# Test: gcPBM binding intensity (ln(normalized median fluorescence intensity)); higher = stronger DNA binding
# Summary of the method: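 An Agilent 4 × 180k array of primer-extended double-stranded 36-bp intergenic genomic probes, with negative controls, was incubated for 1 h with GST-tagged P. falciparum DNA-binding domains expressed in E. coli. Alexa488 anti-GST antibody detected bound protein, scanned at 488 nm. Binding intensity is the highest Masliner-normalised natural-log median intensity across replicate spots of either probe orientation.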
row,Sequence,gcPBM binding intensity (ln)
1,CGCCTATAAGCTTAGACACACAAATAAATAAATATA [CACACA_site1264],9.02
2,TATTGGGGGTATAAACACAGTAAGTAAATAAATAAA [CACACA_negctrl_site1680],9.29
3,TACCTAATTCGGTCCCGTACAAGTTAGTTTCAATTC [XGTACX_site2703],9.18
4,AAAAAAAAAAAAAAGAGTACACAGACGTTCAAAGGT [XGTACX_site7566],9.8
5,TGTATGTATTAATGCGCACACAAAAAATAACAATAT [CACACA_site1848],9.65
6,TATTGATTTAGAAACACACACTCGAAGATGTTTAAC [CACACA_site1129],9.37
7,TTTAAAAAATGTTATATTATATAATTAAAAAAAAAA [CACACA_negctrl_site1509],8.88
8,ATATAGATATATAGTAGTACTTGTTATATAAGATAA [XGTACX_site6336],9.25
9,ACAGAGCTTTAAATACGTACATAATATATATTAAAT [XGTACX_site8221],9.19
10,ATAAAAAAAAAATAATGTACTTATATATATATATAT [XGTACX_site8282],9.11
11,ATATATATATATAAATGTACATTGTGTGTTGTAAGA [XGTACX_site2434],9.59
12,GTATATTATTTACGTTTGCACTTCATTTTATAGTAA,9.6
13,AATGGATGAATGAATGTATGAATGAATGTATGAATG [CACACA_negctrl_site91],9.24
14,TTCTTCAAAAAAAATTGTACACATCTCTCAAATGTT [XGTACX_site2952],8.88
15,TATTAATTGTGGCACCTTGTATGTTTACAATGACAT [CACACA_negctrl_site1383],9.32
16,TTGTTCCACAAAAATTTAGTCAAAAAAAAATAAAAA [TGCATGCA_negctrl_site546],8.79
17,ACAAAAAAAAAAATAACACACATGGGGGTGTATAAA [CACACA_site3797],9.61
18,AATGAATAACAATACTATATGATTTTTAATACATTA [XGTACX_negctrl_site42],9.12
19,TTAAATTTTTTTTTGTGTACGAAAAACAGAAAAAAT [XGTACX_site8625],8.99
20,TATGTGTATGGGAATGCATGTAAATATGTACATATA [TGCATGCA_site737],9.3
21,ATATATATATACATATGTACATATAAAATAATTTTG [XGTACX_site3731],9.12
22,GTATTAGATAAATACACACACAAGCATATATTTTTA [CACACA_site3431],9.76
23,TCTATTCATTTTGAAGGTACACATTTCTTTATAATA [XGTACX_site6218],9.25

row,Sequence,gcPBM binding intensity (ln)
1,AAAAATATATATATATATATATATATAAGGAATATA [XGTACX_negctrl_site450],9.23
2,AATATATCATTATATAAACACACAATATGTTTTTTA [CACACA_site9260],9.24
3,AATAAATATATAAATACACACAAACATACATATATA [CACACA_site9340],9.96
4,AATACAATATAGTGAAAAATAATTAAATACAATAAG [XGTACX_negctrl_site161],9.6
5,CGTAAACAATTATGATGTACATAAAATATATATATA [XGTACX_site2705],9.17
6,TATTTTCATTTGCGCGCACACAATAATAATTTTTGG [CACACA_site3525],9.45
7,AACAATTATTTATCTACACACTTTTATGTTATTTAC [CACACA_site9],9.7
8,TAAAAAATATAAATGACACACACTTAAAAACAAAGA [CACACA_site671],9.98
9,TATAAATTAATGACATGTACATAAAAGTATAGATGT [XGTACX_site6534],9.53
10,AAATATACAAAATATACACACATATTTATTTATGAT [CACACA_site2051],9.56
11,TCTTCCCAAATAAAGTGTACATAAATACGAATAATA [XGTACX_site4363],9.15
12,AAAATTAAAATATATACACACATATATATATTAAAT [CACACA_site4419],9.57
13,TAATGTATATGTAAATGTACATGTATATTATTTAAA [XGTACX_site1840],9.14
14,ATCAAAGATAAATTTACACACATATATATATATATA [CACACA_site2969],9.39
15,AAGATATTTGTATAATGTACAAAACTATATAAAACT [XGTACX_site1433],9.43
16,TTTATATAATAGTTATGTACTTAAACGAAAGATACA [XGTACX_site8495],9.07
17,AAATACAAGGGACATGCATACCACTATTTTTTAAAT [TGCATGCA_site588],9.32
18,AAAGATATTTTTATCTCACACATATAATATATATAT [CACACA_site5478],9.24
19,TATAGAAAATTTATATGTACATATATATATATATAT [XGTACX_site4451],9.06
20,TAAAATTTAAGTTATACACACTTAAGTAACATCATC [CACACA_site6395],9.43
21,TATTTACAGACATGCGCACACATAAATAAATAATAG [CACACA_site2411],9.4
22,GTTACTGCATACATAACACACATATTCAAAACACAT [CACACA_site3502],9.59
23,GCATATGTATATAATGTGCACATGGATTATATAAAA,9.24

row,Sequence,gcPBM binding intensity (ln)
1,GAACTAATAATGAAAAGTACACATACACATATATAT [XGTACX_site6789],9.58
2,AAATGTATACACATGGTGCGTAATATATTATATATA [GTGCAC_site9877],9.24
3,CTACCAAATCTATAGACACACATATATATATATATT [CACACA_site2486],9.39
4,TATATAATATTACGTTGTACACTTTAATCTCCCTTC [XGTACX_site5577],9.31
5,ACCATTTGAAAATTCACACACTTTATTTTGTTATAT [CACACA_site5976],9.77
6,ACTAATATGCAATATTGTACATATATATAGAAATAT [XGTACX_site5273],9.22
7,TATAATCAATGCCAAAGTACATATTAATATATTTAT [XGTACX_site4558],9.21
8,ATTGAAAAATAAAAATGTACACATGTAGCATACCAT [XGTACX_site3275],9.45
9,AATATATCGCATAGTTGTACAGAATTTTTACTTTTA [XGTACX_site8192],9.29
10,TAAGTTTGTCAATCAACACACACCTATTTATTATAT [CACACA_site3919],9.58
11,CACTTTAATTTATGCACACATATGGAACAACAGCCA [CACACA_site994],9.44
12,CTTAAAATGATAATATGTACACATAAATAATATATA [XGTACX_site8330],9.24
13,TTTTTTGACATTCCTTTTAATAATTAACGAAAGGCA [GTGCAC_negctrl_site377],8.78
14,AAATGATATAAATTATAAAATGGATTTTTTCCATTG [CACACA_negctrl_site420],8.98
15,TTTAAAAATTAATTCTGTACACATTTTTATTATATT [XGTACX_site4212],9.43
16,ATTCCTGGACCGTTCATGCACTTGCAGAACGTCCAT,8.99
17,TTTATGAAATGTTGCACACAAAAAACAACATGTTTT [CACACA_site1440],9.25
18,AAAAAAAAAAAAAGTGCACACGATTTAAGGCCTATA [CACACA_site2823],9.48
19,ATAAAATTTTATATGGGTACATAATATAATATATAT [XGTACX_site8160],9.21
20,ATATATATATATATATGTACACATATATTTCTTTTC [XGTACX_site3443],8.95
21,ATATATAATTCCCAAGTGCATTTATTTTAATTATTA,9.38
22,TTCATTCAAATCCAAGCATGCTTTATTAAAAAATTA [TGCATGCA_site567],8.82
23,TACGCCTATAACGGCTGTACACCTTACTTTTTTTAA [XGTACX_site6818],9.31

row,Sequence,gcPBM binding intensity (ln)
1,TATGATTTTTATATATGTACGTATGGTGTTTTACAA [XGTACX_site6100],9.21
2,AATAAATTTCAAAATTGTACTCATTTCCTTTCCCAA [XGTACX_site5887],8.98
3,TGTGAAATAAAATTTGTACACACATATATATATATA [CACACA_site8093],9.26
4,TTCTTCTGTTTTATTACACACCATTTTGTGTCTACA [CACACA_site8643],9.87
5,CTCTATATATTATTATGTACTAAATGTATGTATGTA [XGTACX_site7151],9.32
6,TAACACACTAAGAAAAGTACTGATTAATATAATTTT [XGTACX_site5536],9.34
7,ATGAATGAATAAAGAAGTACGGAAATATTAACAAAA [XGTACX_site4695],9.63
8,AAAACACAATTTATTACACACATATATTATATATTA [CACACA_site1420],9.49
9,ATAACATACATAACAACACACAATATTTATCTGTAT [CACACA_site4279],9.78
10,ATATTTAGAATGTTCCTACACACCAAATTTAAGTGG [CACACA_site2346],9.29
11,TTTATTTTACAAAAAAGTACAAGAAGAAATATCAAT [XGTACX_site7812],9.19
12,TATTAAAAGTAAAAAACACACATGGATAAATACATA [CACACA_site6048],9.73
13,AATGATATATTATAAACACACAAAGATGGATATATA [CACACA_site7349],9.63
14,TTATATATAAATGAAAGTACAAAACAGGAAAGAATA [XGTACX_site1076],9.78
15,ATATATAATATATGTGGTACGCAAAATATTATATTA [XGTACX_site4969],9.27
16,TTTATATTATAATATAATAATGATCTTAATTTTTTT [XGTACX_negctrl_site100],8.91
17,TCAATATACCAAAAATGTACAAAAAATAAACAATAT [XGTACX_site8251],9.61
18,GAACATTTCACATGGTGTACTCTCTTTTTCAAATAA [XGTACX_site1632],9.13
19,ATTAATCCAAATGAATGTACTTAATAATGTAATTAT [XGTACX_site8946],9.08
20,ATTTTATAATTTATATCACACACATATATATATAGT [CACACA_site7885],9.49
